Assay results reported in PMC4336329 (PLoS ONE, 2015).
Out of some 310,000 compounds screened, about 2,200 (0.71%) showed an effect of 50% or more. The effect is printed as a negative number. Some of the results follow.

The molecules below were run against human ether-à-go-go-related gene (hERG) potassium channel (human, UniProt Q12809) (assay: primary screen, population patch clamp on CHO cells stably expressing hERG).
human ether-à-go-go-related gene (hERG) potassium channel, sequence (Q12809 whole entry, looked up): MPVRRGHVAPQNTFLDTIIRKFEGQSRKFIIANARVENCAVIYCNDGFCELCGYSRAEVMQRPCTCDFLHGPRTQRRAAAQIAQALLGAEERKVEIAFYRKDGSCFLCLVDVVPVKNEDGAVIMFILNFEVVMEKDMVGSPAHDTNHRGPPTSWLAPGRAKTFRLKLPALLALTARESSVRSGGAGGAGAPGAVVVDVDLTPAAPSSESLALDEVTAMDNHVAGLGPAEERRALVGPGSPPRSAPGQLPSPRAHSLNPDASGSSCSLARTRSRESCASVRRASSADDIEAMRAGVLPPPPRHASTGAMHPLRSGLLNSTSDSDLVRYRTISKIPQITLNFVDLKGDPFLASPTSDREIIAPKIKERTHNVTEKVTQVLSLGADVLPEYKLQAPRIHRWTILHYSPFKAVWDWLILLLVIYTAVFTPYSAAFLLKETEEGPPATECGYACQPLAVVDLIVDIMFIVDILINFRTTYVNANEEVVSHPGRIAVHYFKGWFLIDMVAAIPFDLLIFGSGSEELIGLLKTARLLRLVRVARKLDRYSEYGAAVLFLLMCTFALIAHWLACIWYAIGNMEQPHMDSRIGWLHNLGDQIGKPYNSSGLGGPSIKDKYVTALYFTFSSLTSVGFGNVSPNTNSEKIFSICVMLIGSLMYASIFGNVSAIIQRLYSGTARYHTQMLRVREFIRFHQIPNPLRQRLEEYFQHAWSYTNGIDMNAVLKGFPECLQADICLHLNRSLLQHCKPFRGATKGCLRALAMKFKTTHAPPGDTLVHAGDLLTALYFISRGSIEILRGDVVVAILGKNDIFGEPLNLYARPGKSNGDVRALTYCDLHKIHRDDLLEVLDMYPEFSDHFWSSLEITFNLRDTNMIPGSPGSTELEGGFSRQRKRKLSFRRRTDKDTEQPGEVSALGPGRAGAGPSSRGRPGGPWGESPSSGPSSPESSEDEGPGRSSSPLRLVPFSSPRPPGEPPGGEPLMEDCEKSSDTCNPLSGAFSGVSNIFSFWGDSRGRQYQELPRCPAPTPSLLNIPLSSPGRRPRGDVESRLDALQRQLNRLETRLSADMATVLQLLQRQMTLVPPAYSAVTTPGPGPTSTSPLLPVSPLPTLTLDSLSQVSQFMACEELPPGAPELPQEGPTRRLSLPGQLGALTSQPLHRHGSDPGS

Row | SMILES | hERG current change (%, negative = inhibition) at 1uM
1 | C=CCNC(=O)Nc1ccc(Br)cc1Cl | 14.9%
2 | O=C(CNC(=O)/C(=C/c1ccccc1)NC(=O)c1ccc(Br)cc1)OCc1ccccc1 | 2.24%
3 | Cc1c(O)ccc2c(CC(=O)N[C@@H](Cc3ccccc3)C(=O)O)cc(=O)oc12 | 14.3%
4 | Cl.OCCNCc1c(OCc2ccc(Cl)cc2)ccc2ccccc12 | 5.05%
5 | Cc1ccc2nc(/C(C#N)=C/c3ccc(O)c(O)c3)[nH]c2c1 | -1.27%
6 | CCCCN(Cc1ccccc1)C(=O)C1CCN(S(=O)(=O)c2c(C)noc2C)CC1 | 14.8%
7 | Nc1ccc(N=Nc2ccccc2)c2cccnc12 | 9.03%
8 | O=C(Nc1ccc2c(c1)C(=O)NC2=O)c1cccc(Cl)c1 | 19%
9 | Cc1cc(=O)oc2cc(OC(C)C(=O)Nc3ccc(N4CCCCC4)cc3)ccc12 (stereo not shown) | 13.9%
10 | O=C(CCc1nnc2n(CCc3ccccc3)c(=O)c3ccccc3n12)NCCCN1CCCCC1 | -9.25%
11 | Cc1cc(=O)cc(C)[nH]1 | 6.43%
12 | CC(C)S(=O)(=O)c1csc(NC(=O)Nc2cc(Cl)ccc2Cl)c1Cl | 5.66%
13 | Cc1nn(Cc2ccccc2Cl)c(C)c1N | 6.88%
14 | Cc1ccc(C(=O)OCC(=O)Nc2cccc(S(=O)(=O)NC3=NCCCCC3)c2)c(C)c1 | -0.902%
15 | CCOC(=O)c1cn(Cc2ccc(Cl)cc2Cl)c2cc(C)nn2c1=O | 3.57%
16 | O=S(=O)(c1ccc(F)cc1)n1ccc(-c2cccc(OCc3ccc(Cl)cc3Cl)c2)n1 | 7.38%
17 | CCCCCCCCCCCCCCCC[n+]1cccc2ccccc21.[I-] | -23%
18 | C/C(=N\S(=O)(=O)c1ccc(C)cc1)N(C)C | 12.6%
19 | O=S(=O)(CCN1CCOCC1)c1ccccc1 | 7.33%
20 | CN(Cc1cccc(F)c1)C(=O)CN1C(=O)NC2(CCc3ccccc32)C1=O (stereo not shown) | 14.2%
21 | CC(=O)c1ccc(Oc2nc3c(c(=O)n(C)c(=O)n3C)n2C)cc1 | 9.43%
22 | CCN(CC(=O)NCc1ccc(F)cc1)Cc1nc2cc(Cl)ccc2c(=O)[nH]1 | -52.5%

Row | SMILES | hERG current change (%, negative = inhibition) at 1uM
23 | O=C(COC(=O)CNC(=O)C1CCCCC1)Nc1ccc(Cl)cc1F | 1.46%
24 | O=C1CN(c2ccccc2F)C(=O)CN1c1ccccc1F | 9.56%
25 | CCOc1ccc2nc(NC(=O)CSC3=NCCS3)sc2c1 | 8.79%
26 | COc1ccc(C(=O)N/C(=C\c2cn(S(=O)(=O)N(C)C)c3ccccc23)C(=O)NCCCn2ccnc2)cc1 | 11.4%
27 | CC(C)CCNC(=O)Cc1c(C(=O)O)[nH]c2ccc(Cl)cc12 | 8.35%
28 | Cc1ccc(CNc2ccc(N3CCOCC3)c(C(=O)O)c2)s1 | -8.35%
29 | CCCCOC(=O)N/N=C/C=C/c1ccccc1 | -0.0129%
30 | CCn1cc(C(=O)NCCCOC)c(=O)c2cc(S(=O)(=O)N(C)C)ccc21 | 15.2%
31 | COc1ccc(/C=C2/SC(=O)N(CCNC(=O)C3CCCN3C(=O)c3cccs3)C2=O)cc1 (stereo not shown) | 8.92%
32 | Cc1ccc(S(=O)(=O)/N=C/c2ccco2)cc1 | 12.8%
33 | CCOC(=O)C1CCCN(C(=O)CCn2nnnc2CN2CCOCC2)C1 (stereo not shown) | 13.6%
34 | CCC(C)n1c(=N)c(C#N)cc2c(=O)n3ccccc3nc21 (stereo not shown) | -24.6%
35 | N#Cc1c(-c2ccccc2)cc(-c2ccc3c(c2)OCO3)[nH]c1=O | 11%
36 | Cn1c(SCC(=O)NC2CCCCCC2)nnc1-c1ccco1 | 6.62%
37 | CC(C)OCCCNC(=O)CCSc1ccc(Cl)cc1 | 6.01%
38 | O=C(Cn1c(=O)n(-c2ccc(F)cc2)c(=O)c2sccc21)c1ccccc1 | 5.42%
39 | Cc1cccc(OCCCC(=O)Nc2ccc(S(=O)(=O)Nc3onc(C)c3C)cc2)c1C | 13.9%
40 | COC(=O)Cc1ccc2sc(-c3ccccc3)nc2c1 | 12.9%
41 | CCOc1ccc(CNc2ncnc(N)n2)cc1 | 7.76%
42 | CC1(C)CC2c3cccc(C(=O)O)c3C(=O)N2c2c1ccc1ccccc21 (stereo not shown) | 8.62%
43 | COC(=O)[C@@]1(Cc2ccc(F)cc2)[C@H]2c3cc(C(=O)N(C)C)n(Cc4c(CO)[nH]cc(C)c4=O)c3C[C@H]2CN1C(=O)c1ccccc1 | 20.7%
